# Article PMC4336329 (PLoS ONE, 2015)
# The campaign covered roughly 310,000 compounds. About 2,200 (0.71%) showed an effect of 50% or more. The effect is printed as a negative number. The list shows a part of the results.
# Target: human ether-à-go-go-related gene (hERG) potassium channel (human, UniProt Q12809)
# Test: primary screen, population patch clamp on CHO cells stably expressing hERG
# Sequence of human ether-à-go-go-related gene (hERG) potassium channel (Q12809 whole entry, looked up): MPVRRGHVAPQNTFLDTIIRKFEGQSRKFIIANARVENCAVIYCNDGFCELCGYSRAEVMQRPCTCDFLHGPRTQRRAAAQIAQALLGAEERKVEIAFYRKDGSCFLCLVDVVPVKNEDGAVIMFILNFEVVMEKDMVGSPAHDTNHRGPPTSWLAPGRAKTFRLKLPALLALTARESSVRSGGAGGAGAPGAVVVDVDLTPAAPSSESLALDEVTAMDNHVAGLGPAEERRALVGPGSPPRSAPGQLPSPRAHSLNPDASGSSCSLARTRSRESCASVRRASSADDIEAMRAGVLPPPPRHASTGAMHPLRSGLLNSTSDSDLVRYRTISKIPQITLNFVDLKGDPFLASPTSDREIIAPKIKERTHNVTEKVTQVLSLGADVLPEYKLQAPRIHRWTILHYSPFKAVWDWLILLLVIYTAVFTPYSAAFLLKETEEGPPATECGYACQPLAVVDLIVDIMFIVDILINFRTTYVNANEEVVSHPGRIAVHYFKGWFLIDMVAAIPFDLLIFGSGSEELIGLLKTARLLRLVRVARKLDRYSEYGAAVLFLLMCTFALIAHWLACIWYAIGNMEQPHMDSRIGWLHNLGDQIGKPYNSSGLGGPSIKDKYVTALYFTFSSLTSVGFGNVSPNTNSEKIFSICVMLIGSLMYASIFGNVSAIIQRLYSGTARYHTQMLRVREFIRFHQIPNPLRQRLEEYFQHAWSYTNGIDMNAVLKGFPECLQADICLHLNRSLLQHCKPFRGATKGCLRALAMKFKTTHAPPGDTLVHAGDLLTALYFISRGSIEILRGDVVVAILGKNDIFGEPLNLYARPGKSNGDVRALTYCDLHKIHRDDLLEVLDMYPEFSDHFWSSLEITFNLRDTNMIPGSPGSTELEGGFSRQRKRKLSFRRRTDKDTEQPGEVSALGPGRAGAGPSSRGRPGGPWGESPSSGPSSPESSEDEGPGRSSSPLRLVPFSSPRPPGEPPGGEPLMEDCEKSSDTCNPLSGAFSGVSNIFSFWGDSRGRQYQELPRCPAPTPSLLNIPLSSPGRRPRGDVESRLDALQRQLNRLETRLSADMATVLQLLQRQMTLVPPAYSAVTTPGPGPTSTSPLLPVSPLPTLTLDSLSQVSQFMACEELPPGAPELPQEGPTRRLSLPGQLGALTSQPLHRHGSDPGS
row,Compound,"hERG current change (%, negative = inhibition) at 1uM [%]"
1,O=C(NC1CC1)c1ccc(S(=O)(=O)NCC2CCCCC2)cc1,12.4
2,COc1cccc(Oc2ccc(C(F)(F)F)cc2NC(=O)c2cccc(F)c2)c1,3.33
3,O=C(COC(=O)/C=C/c1ccc(OC(F)F)cc1)Nc1ccc(S(=O)(=O)N2CCCC2)cc1,0.851
4,CCOc1ccc(NC(=O)CN(C)C(=O)Cc2sc(C)nc2-c2ccc(F)cc2)cc1OCC,2.07
5,CCC(=O)c1ccc(OCC(=O)Nc2ccccc2N2CCCCC2)cc1,16
6,O=c1cc(Cl)[nH]c(=O)n1Cc1ccccc1,16.3
7,CN1C(=O)/C(=C/c2ccc(OCc3ccccc3F)cc2)N(C)C1=S,15.4
8,Cc1ccc(NC2CCCN(C(=O)c3cn(C)c4ccccc34)C2)cc1C (stereo not shown),4.12
9,O=C(CSCCO)Nc1nccs1,3.75
10,O=C(c1ccncc1)N1CCN(C(=O)c2ccncc2)CC1,14.6
11,O=C(COc1ncnc2ccccc12)Nc1ccc(Cl)c([N+](=O)[O-])c1,9.12
12,Cc1cccc(NC(=O)NNC(=O)c2sccc2-n2cccc2)c1,16.5
13,COc1ccccc1CNS(=O)(=O)c1ccc2c(c1)CC(=O)N2C,10.8
14,COc1cc(Br)cc(CN2CCN(c3ncccn3)CC2)c1O,11.5
15,CCCCC(=O)Nc1cc(OC)c(NC(=S)NC)cc1OC,19.2
16,Cc1cc(NC(=O)COC(=O)CCNS(=O)(=O)c2c(Cl)cccc2Cl)no1,4.64
17,CC(C)Oc1ccc(CCC(=O)NNC(=S)NCc2ccccc2)cc1,8.49
18,CC(=O)C(Sc1nnnn1-c1ccccc1)C(C)=O,10.1
19,Cn1c(=O)c2sccc2n(Cc2cccc(Br)c2)c1=O,6.28
20,CCN(CC)CCNC(=O)c1ccc(NC(=O)Cc2ccsc2)cc1,21.2
21,O=C(N1CCOCC1)N1c2ccccc2CC(N2CCOCC2)c2ccccc21 (stereo not shown),17
22,CC1CCN(C(=O)C(C)Cl)CC1 (stereo not shown),21.7

row,Compound,"hERG current change (%, negative = inhibition) at 1uM [%]"
1,O=C1c2cccc3cccc(c23)C(=O)N1Cc1ccccc1,12
2,Nc1cc2c(cc1C(=O)c1ccc(Cl)cc1)OCCO2,9.8
3,CC(C)(C)N(NC(=O)OCc1ccccc1)C(=O)c1ccccc1Cl,-0.0463
4,O=S(=O)(c1ccc(NC2CCCCC2)cc1)N1CCOCC1,11.3
5,O=C(Nc1ccc(S(=O)(=O)N2CCOCC2)cc1)c1nn(-c2ccc(F)cc2)ccc1=O,-6.24
6,Cc1ccc(SCCNC(=S)Nc2ccc(C)cc2C)cc1,13.4
7,Cc1cccc(C)c1NC(=O)CN(C)C(=O)c1cccc(-n2cccc2)c1,14.9
8,COc1ccc(-n2c(C)nc3cc(C(=O)NCCN4CCOCC4)ccc32)cc1,7.27
9,O=C(/C=C/Sc1ccccc1)c1ccccc1,15.5
10,CC(=O)c1ccc(N2Cc3ccccc3/C2=N\C(=O)Nc2ccccc2)cc1,6.5
11,COCCNc1nnc(Cc2ccc(Cl)cc2)c(=O)[nH]1,12
12,O=C(NCc1ccc2c(c1)OCO2)c1ccc(C2SCC(=O)N2Cc2ccco2)cc1 (stereo not shown),-2.52
13,OC(CCc1ccncc1)c1ccccc1 (stereo not shown),14.1
14,Cc1ccc(C(=O)N/C(=C\c2cccc([N+](=O)[O-])c2)C(=O)NC(Cc2ccccc2)C(=O)O)cc1 (stereo not shown),13.7
15,O=C(COC(=O)CCNS(=O)(=O)c1ccccc1)NNC(=O)c1ccccc1,19.8
16,Cc1nc(SCC(=O)c2c(N)n(C3CC3)c(=O)[nH]c2=O)[nH]c(=O)c1CCO,18.9
17,CCOC(=O)N1CCC(NC(=O)CS(=O)(=O)Cc2nc(-c3ccc(C)cc3)oc2C)CC1,-1.25
18,Cc1ccc(C(=O)CSc2nnc(-c3c[nH]c4ccccc34)o2)cc1,14.5
19,Cc1cc(C)cc(N(C(=O)c2cc3ccccc3oc2=O)C2C=CS(=O)(=O)C2)c1 (stereo not shown),-6.82
20,CCNS(=O)(=O)c1ccc(CCC(=O)N2CCC(C)CC2)cc1,8.91
21,COC(=O)C1=C(C(=O)OC)SC2(S1)C(C(=O)OC)=C(C(=O)OC)SC1=C2c2cc(C)ccc2NC1(C)C,11
22,COc1ccc(OC)c(/C=N/NC(=O)CSc2cc(C)nc3c(OC)cccc23)c1,10.1

row,Compound,"hERG current change (%, negative = inhibition) at 1uM [%]"
1,O=C(c1ccc2c(c1)OCO2)N1CCN(S(=O)(=O)c2ccc(Cl)cc2)CC1,7.66
2,CN(C)c1c2ccccc2nc2c(F)c(F)c(F)c(F)c12,15.6
3,Cc1ccc2[nH]cc(CCNC(=O)c3ccco3)c2c1,12.3
4,O=C(O)c1ccc(CSc2nc(-c3ccc(Cl)cc3)cc(C(F)(F)F)n2)cc1,16
5,COc1ccc(OC)c(CNC(=O)C2CCN(S(C)(=O)=O)CC2)c1,9.28
6,CN1CCN(c2ccc([N+](=O)[O-])c3no[n+]([O-])c23)CC1,0.869
7,COc1cccc(NC(=O)CN(C)C(=O)CC(C)c2ccccc2)c1 (stereo not shown),15.7
8,O=C(/C=C/c1ccc(Cl)cc1Cl)NC(=S)Nc1ccccn1,11.1
9,Cc1c(Cl)cccc1NC(=O)CNC(=O)c1cn(-c2ccccc2)nc1-c1cccnc1,3.8
10,Cc1ccccc1NS(=O)(=O)c1ccc(NC(=O)c2ccco2)cc1,13.4
11,Cc1ccc(S(=O)(=O)Nc2ncc(C(F)(F)F)cc2Cl)cc1,18.1
12,CSc1ccc(C(=S)N2CCN(CCO)CC2)cc1,14.1
13,CNc1nc(Sc2ccc(C)cc2)cc(C(F)(F)F)n1,12.9
14,Cc1cc(NCCN2CCOCC2)n2c(nc3ccccc32)c1C#N,5.51
15,CCOC(=O)c1ccc(CNC(=O)CSc2nnc(-c3ccncc3)o2)cc1,10.4
16,Cn1c(O)c(/C=N/N2CCOCC2)c(=O)n(C)c1=S,7.31
17,Cn1c(=O)[nH]c(=O)c2c1[nH]c(=S)n2Cc1ccc(Cl)cc1,8.17
18,CCOc1ccc(NC2c3ccccc3C(=O)N2c2ccc(Cl)cn2)cc1 (stereo not shown),17.8
19,CC(=O)N1CCc2c(sc(NC(=O)C3COc4ccccc4O3)c2C(N)=O)C1 (stereo not shown),-5.19
20,Cc1cccc(C)c1NC(=O)CNC(=O)c1ccc(N2CCCC2)c([N+](=O)[O-])c1,-2.53
21,CCN(c1ccccc1)S(=O)(=O)c1ccc(C(C(=O)OC)C(=O)OC)c([N+](=O)[O-])c1,13.7
22,O=C(NCCNc1ccc([N+](=O)[O-])cc1C(F)(F)F)c1cccc(F)c1,-0.818

row,Compound,"hERG current change (%, negative = inhibition) at 1uM [%]"
1,Cc1cc(C)n2nc(C(=O)OCC(=O)Nc3ccc4c(c3)OCO4)nc2n1,3.56
2,COc1cc2cc(C(=O)N[C@@H](Cc3ccccc3)C(=O)O)n(C)c2c(OC)c1OC,12.9
3,COc1ccc(CC(=O)O/N=C(\N)c2ccc(OC)cc2)cc1,-0.144
4,COc1ccccc1N1CCN(/N=C\c2cccnc2)CC1.Cl,11.8
5,Cc1ccc(-n2nnnc2SCC(=O)c2cc(C)n(CC3CCCO3)c2C)cc1 (stereo not shown),9.93
6,CCCCCCCC1CC(CSc2ncn[nH]2)OC1=O (stereo not shown),6.43
7,CN(Cc1cnccn1)Cc1cn(Cc2ccccc2)nc1-c1ccc2c(c1)OCO2,5.86
8,COc1cccc(NC(=O)Cn2c(CCC(=O)O)ccc2-c2ccc(Cl)cc2)c1,13
9,O=C(Cc1ccc([N+](=O)[O-])cc1)N1CCN(Cc2ccc3c(c2)OCO3)CC1,-28
10,CCOc1ccc(NC(C)=O)cc1,2.38
11,CCCCn1c(SCC(=O)c2ccccc2)nc2ccsc2c1=O,11
12,CC(NCC(O)COCCC12CC3CC(CC(C3)C1)C2)c1ccccc1.Cl (stereo not shown),11.7
13,Cc1ccc2c(c1)C(c1ccccc1)N(C(=O)c1cccc([N+](=O)[O-])c1)CC(=O)N2 (stereo not shown),3.99
14,Cc1ccc2sc(NNC(=O)c3cc(=O)c4ccccc4o3)nc2c1C,12.8
15,CCN(C(=O)COC(=O)CC(C)c1ccccc1)c1c(N)n(Cc2ccccc2)c(=O)[nH]c1=O (stereo not shown),17.7
16,O=[N+]([O-])c1ccc(S(=O)(=O)Nc2nc(-c3ccccc3)cs2)cc1,14.5
17,O=C(Cn1nc(-c2ccccc2)ccc1=O)NCc1ccc2c(c1)OCO2,-3.55
18,COc1ccccc1NS(=O)(=O)c1cccc(C(=O)N/N=C/c2ccccc2OCC(=O)O)c1,7.73
19,CSc1ccc(CCNC(=O)c2nn(C)c3c2CS(=O)(=O)c2ccccc2-3)cc1,-0.0108
20,Cc1ccccc1C(=O)c1cccn1CC(=O)NCC(C)c1ccccc1 (stereo not shown),4.86
21,O=C(Nc1ccccc1Cl)N1CCn2c(nc3ccccc32)C1,17
22,COc1ccc(OCCCC(=O)ON=C(N)c2ccccc2C)cc1,6.73
